From PubChem BioAssay (NCATS)
Inconclusive means that the source gave no clear call. Such entries were picked first, then a sample of the others. For some of these results: Potencies of inconclusive entries are doubtful fits and often do not repeat. Activity calls are given as the source filed them. Unless noted, the call rests on the fitted dose curve; in most records, active means well fitted curve in the direction sought with a large enough effect; inconclusive means small, poorly fitted or top-dose-only effect, or another doubt; inactive means no such curve, though single readings can be large; an effect the other way counts as inactive or inconclusive.

How the values were obtained:
[1] = molecular target: Aldehyde dehydrogenase, mitochondrial (Homo sapiens) (UniProt P05091); assay: qHTS for Inhibitors of the Aldehyde Dehydrogenase Family (ALDH2) Confirmatory screens (AID 2061303; active means well fitted inhibition curve with a large enough effect; inconclusive means small, poorly fitted or top-dose-only effect; inactive means no such curve, though single readings can be large or run the other way; title and protocol of this record describe different tests; further: nearly all actives have a fitted effect of over 45% in size; further: potency means the concentration at half of the fitted maximal effect); details: ALDH inhibition qHTS; activity change, negative = inhibition: at 45.4 µM (top of the series)
[2] = qHTS for Inhibitors of the Aldehyde Dehydrogenase Family (ALDH1A2, ALDH1A3, ALDH2, ALDH3A1) (AID 2061307); details: ALDH inhibition qHTS; activity change, negative = inhibition: at 50.3 µM (top of the series) unless noted; further: test system not described further here; potency means the concentration at half of the fitted maximal effect; nearly all actives have a fitted effect of over 50% in size
[3] = molecular target: Retinaldehyde dehydrogenase 3 (Homo sapiens) (UniProt P47895); assay: qHTS for Inhibitors of the Aldehyde Dehydrogenase Family (ALDH1A3) Confirmatory screens (AID 2061311); details: activity change, negative = inhibition: at 46 µM (top of the series); further: nearly all actives have a fitted effect of over 60% in size; further: potency means the concentration at half of the fitted maximal effect
[4] = molecular target: Retinaldehyde dehydrogenase 3 (Homo sapiens) (UniProt P47895); assay: qHTS for Inhibitors of the Aldehyde Dehydrogenase Family (ALDH1A3) Primary screen (AID 2061315); details: ALDH inhibition qHTS; activity change, negative = inhibition: at 56 µM (top of the series) unless noted
[5] = molecular target: Aldehyde dehydrogenase 1A1 (Homo sapiens) (UniProt P00352); assay: qHTS for Inhibitors of the Aldehyde Dehydrogenase Family (ALDH1A1) Confirmatory screens (AID 2061316); details: activity change, negative = inhibition: at 47.3 µM (top of the series); further: potency means the concentration at half of the fitted maximal effect; nearly all actives have a fitted effect of over 65% in size
[6] = molecular target: Retinal dehydrogenase 2 (Homo sapiens) (UniProt O94788); assay: qHTS for Inhibitors of the Aldehyde Dehydrogenase Family (ALDH1A2) Confirmation screens (AID 2061314); details: activity, negative = inhibition: at 45.9 µM (top of the series) unless noted; further: nearly all actives have a fitted effect of over 65% in size; further: potency means the concentration at half of the fitted maximal effect
[7] = BET inhibitor-based combinations targeting novel dependencies in MECOM-rearranged (r) AML: SET-2 cell line (AID 2202231); details: SET-2 AML cells viability, CellTiter-Glo luminescence, 48 h; viability: stronger effect = lower value, concentration not given here; further: potency means the concentration at half of the fitted maximal effect; nearly all actives have a fitted effect of over 35% in size
In short: (§1)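 500 cells/well; 11-pt dose curve; 48 h, standard incubator; CellTiter-Glo luminescence after 15 min RT; DMSO/empty-well normalization; AUC plus Z-AUC (mean-centered within each line).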

[8] = BET inhibitor-based combinations targeting novel dependencies in MECOM-rearranged (r) AML: OCI-AML3 cell line (AID 2202232); details: CellTiter-Glo luminescence, 48 h; Potency: OCI-AML3 viability; series mostly up to 46 µM; further: potency means the concentration at half of the fitted maximal effect; nearly all actives have a fitted effect of over 35% in size
In short: as §1

[9] = BET inhibitor-based combinations targeting novel dependencies in MECOM-rearranged (r) AML: HNT-34 cell line (AID 2202234); further: potency means the concentration at half of the fitted maximal effect; nearly all actives have a fitted effect of over 35% in size
In short: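 Cells were plated at 500 per well and exposed to each drug across an 11-point dose range for 48 hr at standard incubator conditions. Viability was read by CellTiter-Glo luminescence, and activity was expressed as AUC and per-cell-line Z-transformed AUC.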

[10] = BET inhibitor-based combinations targeting novel dependencies in MECOM-rearranged (r) AML: AML-191 cell line (AID 2202236; further: potency means the concentration at half of the fitted maximal effect; nearly all actives have a fitted effect of over 35% in size)
In short: as §1

[11] = BET inhibitor-based combinations targeting novel dependencies in MECOM-rearranged (r) AML: AML-194 cell line (AID 2202237; further: potency means the concentration at half of the fitted maximal effect; nearly all actives have a fitted effect of over 40% in size)
In short: as §1
Tags describe the fitted curve by direction and shape.

Row | SMILES | Potency [1] | Potency [2] | Potency [3] | Potency [4] | Potency [5] | Potency [6] | Potency [7] | Potency [8] | Potency [9] | Potency [10] | Potency [11]
1 | CN(C)c1cnc2c(O)ccc(C(=O)O)c2c1 | inconclusive: 22.4 µM [inhibitor, full curve, poor fit] | inconclusive: 0.759 µM [inhibitor, full curve] | active: 8.96 µM | inactive | inconclusive: 12.7 µM [inhibitor, partial curve] | – | – | – | – | – | –
2 | COc1ccc(-n2cc(C(=O)Nc3cc(F)ccc3F)c3ccccc3c2=O)cc1 | inactive | inconclusive: 7.08 µM [inhibitor, partial curve, poor fit] | inconclusive: 5.76 µM [inhibitor, full curve] | – | active: 11.5 µM | inactive | – | – | – | – | –
3 | COCC(=O)NC/C=C/c1ccc2ncnc(Nc3ccc(Oc4ccc(C)nc4)c(C)c3)c2c1 | inconclusive: 1.78 µM [inhibitor, full curve, poor fit] | active: 7.12 µM | inactive | – | inconclusive: 22.5 µM [inhibitor, partial curve, poor fit] | inactive | inconclusive: 20.9 µM [inhibitor, single point] | inconclusive: 16.6 µM [inhibitor, partial curve] | inconclusive: 18.6 µM [inhibitor, partial curve] | inconclusive: 37.2 µM [inhibitor, single point] | inconclusive: 23.5 µM [inhibitor, partial curve, poor fit]
4 | COc1ccc(-c2nc3ccccc3c(=O)n2Cc2ccco2)cc1COc1ccc(NC(C)=O)cc1 | inconclusive: 14.2 µM [inhibitor, partial curve] | active: 20.1 µM | inconclusive: 31.8 µM [inhibitor, single point] | – | inconclusive: 17.9 µM [inhibitor, partial curve] | active: 12.7 µM | – | – | – | – | –
